Measured values as given in PubChem BioAssay AID686979 (National Center for Advancing Translational Sciences (NCATS), 2013).
“And” between values parts separate entries of the source, which are not always exact repeats. Equal values may be shown once. Screen size: about 420,000 compounds; about 50,000 (12%) were called active. Inconclusive means that the source gave no clear call. Such entries were picked first, then a sample of the others. Calls come from the whole dose curve; as a rule, active = well fitted inhibition curve with a large enough effect; inconclusive = small, poorly fitted or top-dose-only effect; inactive = flat fitted curve, though single readings scatter. Potencies beside an inconclusive call are fits to weak or partial responses and may not hold up.

assay: qHTS for Inhibitors of human tyrosyl-DNA phosphodiesterase 1 (TDP1): qHTS in cells in presence of CPT; details: chicken DT40 Tdp1-/-;hTDP1 cells + 20 nM CPT, ATP luminescence, 48 h; activity change, negative = growth inhibition: at 46.2 µM (top of the series) unless noted; note: nearly all actives have a fitted effect of over 55% in size
Summary of the method: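 Chicken DT40 Tdp1-/- cells stably complemented with human TDP1 were seeded at 400 cells/well in medium containing 20 nM camptothecin, exposed to pin-transferred compounds, and grown at 37 °C for at least 48 hr. Viability was read as ATP luminescence.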
% is set by controls: 0 for no effect and ±100 for the full control effect; potency is the fitted concentration of half-maximal effect; tags give direction and shape of the fitted curve.

Q: With `Nc1ncc([N+](=O)[O-])s1` as the compound, how does the Potency read?
A: inactive

Q: With `COc1ccc(CNC(=O)C2CCN(c3nc(OC)nc(OC)n3)CC2)cc1` as the compound, how does the Potency read?
A: inconclusive: 5.17 µM [inhibitor, partial curve]

Q: With `CCOC(=O)C1=C[C@@H](OC(CC)CC)[C@H](NC(C)=O)[C@@H](N)C1` as the compound, how does the Potency read?
A: inactive

Q: Which Potency does the source give for `O=C(COc1ccc(Br)cc1)N1CCN(Cc2ccc3c(c2)OCO3)CC1` here?
A: inconclusive: 18.4 µM [inhibitor, single point]

Q: With `CCn1cc2nc(SCc3ccccc3Cl)n(CCc3ccccc3)c(=O)c2n1` as the compound, how does the Potency read?
A: inconclusive: 29.1 µM [inhibitor, single point]

Q: Which Potency does the source give for `CC1(C)C(C(=O)N2CCN(c3ccc(Cl)cc3)CC2)C1(C)C` here?
A: inconclusive: 29.1 µM [inhibitor, single point]

Q: With `O=C1NCc2c1c1c3ccccc3[nH]c1c1[nH]c3ccccc3c21` as the compound, how does the Potency read?
A: active: 3.16 µM

Q: Which Potency does the source give for `Cc1ccc2nc(-c3ccc(CN4CCC(n5c(=O)[nH]c6ccccc65)CC4)cc3)c(-c3ccccc3)nc2c1` here?
A: active: 8.2 µM

Q: With `Cc1ncoc1C(=O)NCCC(c1ccccc1)c1ccccc1` as the compound, how does the Potency read?
A: inconclusive: 32.6 µM [inhibitor, single point]

Q: For `Cc1cccc2sc(NC(=O)c3cccn(Cc4ccccc4)c3=O)nc12`, which Potency is on record?
A: inconclusive: 20.6 µM [inhibitor, partial curve]

Q: Which Potency does the source give for `COc1ccc2[nH]cc(CCN)c2c1` here?
A: inactive and inconclusive: 16.4 µM [inhibitor, single point]

Q: With `CC(C)[N+](C)(C)CC(O)CN(c1ccccc1)c1ccccc1` (stereo not drawn) as the compound, how does the Potency read?
A: inconclusive: 29.1 µM [inhibitor, single point]

Q: For `CC(=O)[C@H]1CC[C@H]2[C@@H]3CCC4=CC(=O)CC[C@]4(C)[C@H]3CC[C@]12C`, which Potency is on record?
A: active: 21.1 µM and active: 26.6 µM

Q: With `CC1(C)OC1COc1c2occc2cc2ccc(=O)oc12` (stereo not drawn) as the compound, how does the Potency read?
A: inconclusive: 16.4 µM [inhibitor, partial curve, poor fit]

Q: Which Potency does the source give for `CC(=O)N1CCN(c2ccc(OC[C@H]3CO[C@](Cn4ccnc4)(c4ccc(Cl)cc4Cl)O3)cc2)CC1` here?
A: active: 11.9 µM and active: 20.6 µM and active: 6.31 µM

Q: With `COCCCN1CCN(c2nnc3n2-c2sc(Br)cc2C(c2ccccc2Cl)=NC3)CC1` as the compound, how does the Potency read?
A: inconclusive: 11.6 µM [inhibitor, partial curve]

Q: Which Potency does the source give for `O=C(c1ccc(Cl)cc1)c1cn(Cc2ccccc2)c2cc3c(cc2c1=O)OCCO3` here?
A: inconclusive: 20.6 µM [inhibitor, single point]

Q: For `CCOC(=O)C1=C(NC(=S)NC(=O)c2ccccc2)c2ccccc2CC12CCCC2`, which Potency is on record?
A: active: 16.4 µM

Q: With `CCCC[N+]1(C)[C@@H]2CC(OC(=O)[C@H](CO)c3ccccc3)C[C@H]1[C@@H]1O[C@@H]12` (stereo partly drawn) as the compound, how does the Potency read?
A: inactive

Q: With `CCOC(=O)[C@]12Cc3cc(OC)ccc3[C@H]1N(C)C(=O)c1cc(OC)ccc12` as the compound, how does the Potency read?
A: inconclusive: 25.9 µM [inhibitor, single point]

Q: Which Potency does the source give for `CN(C)CC/C=C1/c2ccccc2Sc2ccc(Cl)cc21` here?
A: inactive

Q: For `Cc1cc(NC(=O)CCl)nn1C`, which Potency is on record?
A: active: 23.1 µM

Q: Which Potency does the source give for `Cc1cc(C)cc(N2C(=O)/C(=C\c3ccc(N4CCN(C)CC4)o3)C(=O)NC2=S)c1` here?
A: inconclusive: 29.1 µM [inhibitor, single point]

Q: For `O=C1NCN(c2ccccc2)C12CCN(C(c1cccc3ccccc13)c1nnnn1C1CCCC1)CC2` (stereo not drawn), which Potency is on record?
A: inconclusive: 29.1 µM [inhibitor, single point]

Q: With `Cc1cc([N+](=O)[O-])c2ccccc2[n+]1[O-]` as the compound, how does the Potency read?
A: active: 0.0461 µM

Q: With `CN(C)CCc1c[nH]c2ccc(O)cc12` as the compound, how does the activity change, negative = growth inhibition read?
A: inconclusive: -27.5% [inhibitor] [at 92.5 µM]

Q: Which Potency does the source give for `CCOC(=O)c1ccc(COC(=O)c2ccc(-c3nnc(-c4ccccc4)o3)cc2)o1` here?
A: inconclusive: 32.6 µM [inhibitor, single point]

Q: Which Potency does the source give for `COC([CH2][Hg])CNC(=O)c1ccccc1OCC(=O)O` (stereo not drawn) here?
A: active: 1.06 µM

Q: With `C=C(COC(C)=O)CC1CC(O)[C@]2(C)OC3CC4OC5C[C@]6(C)O[C@]7(C)CCC8OC9C[C@]%10(C)OC%11C(C)=CC(=O)OC%11CC%10OC9C[C@@H](C)C8OC7CC6O[C@]5(C)C/C=C\C4OC3CC2O1` (stereo partly drawn) as the compound, how does the Potency read?
A: active: 23.1 µM

Q: Which Potency does the source give for `Clc1ccc(C(Cl)(Cl)Cl)c(Cl)c1` here?
A: inconclusive: 23.1 µM [inhibitor, single point]

Q: With `Cc1cc(Br)cn2c(CC(=O)N3CCCCC3)c(-c3ccc(F)cc3)nc12` as the compound, how does the Potency read?
A: inconclusive: 29.1 µM [inhibitor, single point]

Q: With `CCOC(=O)CNC(=S)N1CC2C[C@@H](C1)Cn1c2cccc1=O` as the compound, how does the Potency read?
A: inactive

Q: Which Potency does the source give for `c1ccc2c(CCNC3=NCCC3)c[nH]c2c1` here?
A: inactive

Q: With `C[C@@]12CCC(=O)C[C@@H]1CC[C@@H]1[C@@H]2CC[C@]2(C)C(=O)CC[C@@H]12` as the compound, how does the Potency read?
A: inconclusive: 29.1 µM [inhibitor, single point]

Q: For `O=C(NCc1ccccc1)N1CCc2c(sc3c2CCCC3)C1c1ccccc1` (stereo not drawn), which Potency is on record?
A: inconclusive: 5.17 µM [inhibitor, single point]

Q: Which Potency does the source give for `O=C(CCCCCCCCC#CI)Oc1ccccc1` here?
A: inconclusive: 29.9 µM [inhibitor, single point]

Q: Which Potency does the source give for `CC1C(C)N1CC(O)Cn1ccnc1[N+](=O)[O-]` (stereo not drawn) here?
A: inconclusive: 10.3 µM [inhibitor, partial curve]

Q: With `O=C(NC1CC1)C1CSC(c2cccnc2)=N1` (stereo not drawn) as the compound, how does the Potency read?
A: inactive

Q: With `CC[N+](CC)(CCCNC1=CC(=O)C(NCCC[N+](CC)(CC)Cc2ccccc2)=CC1=O)Cc1ccccc1` as the compound, how does the Potency read?
A: inactive

Q: Which Potency does the source give for `CCOc1cc(N2CCOCC2)c(OCC)cc1NC(=O)C1=NN(c2cccc(C)c2)C(=O)CC1` here?
A: inconclusive: 29.1 µM [inhibitor, single point]

Q: For `Nc1c(C(=O)NCC2CCCO2)c2nc3ccccc3nc2n1Cc1ccco1` (stereo not drawn), which Potency is on record?
A: inconclusive: 18.4 µM [inhibitor, partial curve]

Q: Which Potency does the source give for `COc1cc(CNc2ccc3[nH]c(=O)[nH]c3c2)ccc1OCc1ccccc1C` here?
A: inconclusive: 29.1 µM [inhibitor, single point]

Q: For `COc1cccc(CCNCc2c(F)cccc2F)c1`, which Potency is on record?
A: inactive
